Measured values taken from PubChem BioAssay AID1508624 (National Center for Advancing Translational Sciences (NCATS), 2021).
Out of some 48,000 compounds screened, about 120 (0.25%) were called active. Inconclusive results (about 4%) are left out. Calls come from the whole dose curve; as a rule, active = well fitted activation curve with a large enough effect; inconclusive = small, poorly fitted or top-dose-only effect, or another doubt; inactive = no such curve, though single readings can be large or run the other way. The list shows a part of the results.

assay: Primary qHTS for Identification of Small Molecule Activators of Huntingtin-Antisense Promoter Activity; settings: HEK293 HTT-AS promoter firefly luciferase reporter (activity 0% = vehicle and -100% = no light), 24 h; series mostly up to 57.5 µM; activity change, positive = activation: at the top concentration; note: nearly all actives have a fitted effect of over 55% in size
How it was run: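 Quantitative HTS used concentration series of up to 57.5 uM final on HEK293 luciferase reporter cells, 24 h at 37 degrees C. Readout was Dual-Glo firefly luminescence.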
Potency is the fitted concentration of half-maximal effect.

Row | Compound | activity change, positive = activation | Potency
1 | COc1ccc(CNC(=O)CN(c2cc(C(F)(F)F)ccc2Cl)S(C)(=O)=O)cc1 | inactive: -16.7% | –
2 | O=C1[C@H](CC[C@H](O)c2ccc(F)cc2)[C@@H](c2ccc(O)cc2)N1c1ccc(F)cc1 | inactive: -20.8% | –
3 | Cc1ccc(C(=O)c2oc3ccccc3c2NC(=O)c2cc(-c3ccc(Cl)cc3)on2)cc1 | inactive: -18.1% | –
4 | COc1ccc(Cl)cc1NC(=O)Cn1ncc2c3ccccc3n(Cc3ccccc3)c2c1=O | inactive: -24% | –
5 | Cc1ccccc1Nc1sc(C(=O)c2ccc(F)cc2)c(N)c1C(=O)NCCc1ccccc1 | inactive: 0.85% | –
6 | CN(C)c1nc(Cc2ccc(NC(=O)c3ccc4ccccc4c3)cc2)nc(Cl)c1CC(=O)O | inactive: -5.14% | –
7 | CC(=O)c1cccc(NC(=O)c2sc(-n3nc(C)c(CCC(C)C)c3C)nc2C)c1 | inactive: -3.52% | –
8 | Cc1nc(-c2ccc(S(=O)(=O)N3CCN(c4cccc(Cl)c4)CC3)cc2)co1 | inactive: -29.8% | –
9 | COc1cc(NC(=O)Cn2c(=O)n(CC(=O)NCCc3ccc(OC)c(OC)c3)c(=O)c3sccc32)cc(OC)c1 | inactive: -11.8% | –
10 | CC(=O)Nc1ccc(S(=O)(=O)NCC2CCC(C(=O)NCc3ccccc3Cl)CC2)cc1 (configuration not stated) | inactive: 5.32% | –
11 | CSc1ccc(CNC(=O)Cc2csc3ccccc23)cc1 | inactive: 14.5% | –
12 | CC(=O)NCCNc1nc2c(-c3cccc(C)c3)nnn2c2ccc(Cl)cc12 | inactive: 8.46% | –
13 | COc1ccc(N2CC(NC(=O)Cc3cccs3)CC2=O)cc1 (configuration not stated) | inactive: -4.35% | –
14 | COc1ccc(-n2nnnc2C2CCN(S(=O)(=O)c3ccc(F)cc3Cl)CC2)cc1 | inactive: -40.9% | –
15 | COc1cccc(Nc2sc(C(=O)c3ccc4c(c3)OCO4)c(N)c2S(=O)(=O)c2ccccc2)c1 | inactive: -26.1% | –
16 | Cc1cc(C)cc(NC(=O)CSc2nc3c([nH]c4ccccc43)c(=O)n2-c2ccc(F)cc2)c1 | inactive: -27.2% | –
17 | CNC(=O)C(=O)NCC(c1ccc2c(c1)OCO2)N1CCOCC1 (configuration not stated) | inactive: -5.62% | –
18 | CCOc1ccc(-c2cc(NC(=O)c3cccc(Cl)c3)c(C(=O)OC)s2)cc1 | inactive: -2.94% | –
19 | CC1=C(C(=O)Nc2ccccc2)C(c2ccc(C)cc2)n2nc(SCc3ccccc3C)nc2N1 (configuration not stated) | inactive: 0.412% | –
20 | CCCOc1ccc(C(=O)Nc2nonc2-c2ccc(OCC)cc2)cc1 | inactive: -5.58% | –
21 | COc1ccc(CNC(=O)C2=C(C)C(=O)OC23CCCCC3)cc1OC | inactive: -4.75% | –
22 | O=C(c1ccc(F)cc1F)N1CCC(c2nc(-c3ccc(S(=O)(=O)N4CCCC4)cc3)no2)CC1 | inactive: 0.0687% | –
23 | Cc1ccc(OCCCCn2cnc3ccccc32)cc1 | inactive: -13.6% | –
24 | CCN(CC)S(=O)(=O)c1ccc2c(c1)nc(CN(C)C(=O)Nc1ccc(F)cc1)n2C | inactive: -6.59% | –

Row | Compound | activity change, positive = activation | Potency
25 | COc1cc(Cl)c(C)cc1NC(=O)CCc1c(C)nc2c3cccnc3nn2c1C | inactive: -12.4% | –
26 | CS(=O)(=O)c1ccccc1-c1nnc(NC(=O)c2ccc3c(c2)OCCO3)o1 | inactive: 1.37% | –
27 | COc1ccc(CNC(=O)CSc2n[nH]c(-c3ccc(F)cc3)n2)cc1 | inactive: -14.4% | –
28 | O=C(Nc1nc2n(n1)C(c1ccccc1)C=C(c1ccccc1)N2)c1ccccc1 (configuration not stated) | inactive: -34.9% | –
29 | COc1ccc(NC(=O)c2nnn(CC(=O)Nc3c(C)cc(C)cc3C)c2N)cc1OC | inactive: 3.44% | –
30 | Cc1ccc(C)c(CN2C(=O)c3ccccc3S(=O)(=O)c3ccc(C(=O)Nc4cc(F)ccc4F)cc32)c1 | inactive: -28.2% | –
31 | COc1ccc(CNC(=O)CN(c2ccc(C)cc2)S(=O)(=O)c2c(C)noc2C)cc1 | inactive: -16.3% | –
32 | COc1ccc(CNC(=O)C(CCSC)NS(=O)(=O)c2ccc3c(c2)oc(=O)n3C)cc1 (configuration not stated) | inactive: -0.359% | –
33 | Fc1ccc(Nc2nc(SCc3cccc(Cl)c3)nc3ccccc23)cc1 | inactive: -38.2% | –
34 | CSc1nc(-c2ccccc2Cl)nc2c1Cc1c(CO)cnc(C)c1O2 | inactive: -35.1% | –
35 | COc1ccc(CNC(=O)Cn2c(=O)c3cccn3c3ccccc32)cc1 | inactive: -23.3% | –
36 | CCc1nnc2c(N3CCN(c4cccc(C(F)(F)F)c4)CC3)nc3ccccc3n12 | inactive: -11.2% | –
37 | COc1cccc(CNc2ncnc3onc(C)c23)c1 | inactive: -58% | –
38 | O=C(Cn1c(=O)n(Cc2ccco2)c(=O)c2oc3ccccc3c21)Nc1ccc(F)c(Cl)c1 | inactive: -22.2% | –
39 | COc1ccc(N(CC(=O)N2CCc3ccccc3C2)S(=O)(=O)c2ccc(C)cc2)cc1Cl | inactive: -21.7% | –
40 | CN1CCN(CCCNC(=O)c2cnn(-c3ccc(F)cc3)c2-n2cccc2)CC1 | inactive: -12.9% | –
41 | c1ccc(-c2cc3ncc4c(n3n2)-c2ccccc2OC4)cc1 | – | active: 1.58 µM
42 | COc1ccc(C2=C(C(C)=O)Sc3nnc(-c4ccc(Cl)cc4)n3N2C(C)=O)cc1OC | inactive: -19.7% | –
43 | O=C(Nc1c(C(=O)N2CCN(c3ccccc3F)CC2)oc2ccccc12)c1ccco1 | inactive: -26.8% | –
44 | CCOC(=O)c1ccc(NC(=O)c2cn(-c3ccccc3)nc2-c2ccc(C)cc2)cc1 | inactive: -0.983% | –
45 | CCCc1ccc(S(=O)(=O)N2CCC(c3nnnn3-c3ccc(OC)cc3)CC2)cc1 | inactive: -12.8% | –
46 | Cc1oc2cc3oc(=O)c(CC(=O)N4CCCCC4)c(C)c3cc2c1C | inactive: -4.31% | –
47 | CCOc1cc(C#N)c(NC(=O)c2ccc(OC)c(S(=O)(=O)N3CCN(c4ccccc4)CC3)c2)cc1OCC | inactive: -8.16% | –
